The campaign covered roughly 420,000 compounds. About 50,000 (12%) were called active. The inconclusive results got no clear call from the source; some entries with a clear call stand among them for comparison. Calls follow the shape of the dose curve; as a rule, active = well fitted inhibition curve with a large enough effect; inconclusive = small, poorly fitted or top-dose-only effect; inactive = flat fitted curve, though single readings scatter. Potencies of inconclusive entries are left out as doubtful fits.
Assay: qHTS for Inhibitors of human tyrosyl-DNA phosphodiesterase 1 (TDP1): qHTS in cells in presence of CPT; also: nearly all actives have a fitted effect of over 55% in size
Settings: chicken DT40 Tdp1-/-;hTDP1 cells + 20 nM CPT, ATP luminescence, 48 h; series mostly up to 46.2 µM
Procedure, shortened: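 Chicken DT40 Tdp1-/- cells complemented with human TDP1, 400 cells/well, exposed to compounds plus 20 nM camptothecin for at least 48 h at 37 C; viability read as ATP content by CellTiter-Glo luminescence.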
Potency is read from the fitted curve at half-maximal effect; tags tell the direction and shape of the fitted curve.

Which Potency does the source give for `CCCc1nn2c(=O)cc(COC(=O)c3ccccc3NC(=O)COc3ccccc3F)nc2s1` here?
Its Potency is inconclusive [inhibitor, partial curve].

For `O=C(NCCc1ccccc1)c1ccc(CS(=O)(=O)Cc2ccccc2F)o1`, which Potency is on record?
The Potency was “inactive”.

Which Potency does the source give for `COc1ccc(NC(=O)c2oc3ccc(S(=O)(=O)N4CCCCC4)cc3c2C)cc1` here?
Its Potency is inconclusive [inhibitor, single point].

With `COc1cc2c(cc1OC)CN(C(=O)[C@@H]1C[C@H](NCc3cn(C)c4ccccc34)CN1C1Cc3ccccc3C1)CC2` as the molecule, how does the Potency read?
Its Potency is inconclusive [inhibitor, single point].

With `CCc1ccc(-n2nc(C)c3c(C)cc(=O)n(Cc4nc(-c5ccccc5)oc4C)c32)cc1` as the molecule, how does the Potency read?
Its Potency is inconclusive [inhibitor, single point].

With `CC(NC(=O)c1cc(S(=O)(=O)N2CCOCC2)cn1C)c1ccccc1` (centres undefined) as the molecule, how does the Potency read?
Its Potency is “inactive”.

For `O=C(Nc1ccc(N2CCOCC2)cc1)c1cccc2ccccc12`, which Potency is on record?
Its Potency is inconclusive [inhibitor, single point].

For `COc1ccc(OC)c(CNC(=O)c2ccc(Sc3ccc(C)cc3)c(N)c2)c1`, which Potency is on record?
The Potency was active: 23.1 µM.

Which Potency does the source give for `Cc1ccc(NCc2nc3ccccc3n2C)cc1` here?
The Potency was inconclusive [inhibitor, single point].

With `C=CC(=O)O` as the molecule, how does the Potency read?
Its Potency is “inactive”.

For `Cc1ccc(CNC(=S)NC2CCC(C(C)(C)C)CC2)cc1` (centres undefined), which Potency is on record?
Its Potency is inconclusive [inhibitor, single point].

For `COc1ccc(-n2nnc3c(=O)n(Cc4cc(C)ccc4C)cnc32)cc1`, which Potency is on record?
The Potency was inconclusive [inhibitor, partial curve].

With `CCCOC(=O)c1c(NC(=O)c2nc3ncccn3n2)sc(C(N)=O)c1C` as the molecule, how does the Potency read?
The Potency was “inactive”.

Which Potency does the source give for `C=CCNc1ncnc2ccccc12` here?
The Potency was inconclusive [inhibitor, partial curve, poor fit].

For `Cc1nc2c(C(=O)NCCCN(CC(C)C)CC(C)C)cnn2c(C)c1Cc1c(F)cccc1Cl`, which Potency is on record?
The Potency was active: 23.1 µM.

For `COc1ccccc1N1CCN(C(=O)c2cc(-c3ccc4c(c3)OCO4)on2)CC1`, which Potency is on record?
Its Potency is “inactive”.

For `CCCCN(CCCC)Cc1cc(=O)oc2cc(C)c(Cl)cc12`, which Potency is on record?
The Potency was inconclusive [inhibitor, single point].

With `CC(C)(C)C1CCC(CN2CCC(CN3C(=O)C(=O)NC[C@@H]3Cc3ccccc3)CC2)CC1` (some centres undefined) as the molecule, how does the Potency read?
The Potency was inconclusive [inhibitor, single point].

For `Cc1ccc(NC(=O)C2C(c3ccccc3)C2(Cl)Cl)c(C)c1` (centres undefined), which Potency is on record?
Its Potency is inconclusive [inhibitor, single point].

From PubChem BioAssay AID686979 (National Center for Advancing Translational Sciences (NCATS), 2013)
